Experimental data from paper PMC9911399, “Two distinct binding modes provide the RNA-binding protein RbFox with extraordinary sequence specificity”.
Substitutions are numbered along the chain they refer to; changes in the protein carry UniProt numbers. The list shows a part of the results.

B1: UGCUAUC (DNA:RNA)
RNA: GGGAGACCGGAAUUCAGAUUGUCCUGCUAUCUUAAAUCCCGUCGUAGCCACCA
DNA 1: CAATCTGAATTCCGGTCTCCC
DNA 2: TGGTGGCTACGACGGGATT
B2: UCCGCAA (DNA:RNA)
RNA: B1 RNA with G26C, U28G, A29C, U30A, C31A
DNA 1: CAATCTGAATTCCGGTCTCCC
DNA 2: TGGTGGCTACGACGGGATT
B3: ACGGCCC (DNA:RNA)
RNA: B1 RNA with U25A, G26C, C27G, U28G, A29C, U30C
DNA 1: CAATCTGAATTCCGGTCTCCC
DNA 2: TGGTGGCTACGACGGGATT
B4: AUUGAUG (DNA:RNA)
RNA: B1 RNA with U25A, G26U, C27U, U28G, C31G
DNA 1: CAATCTGAATTCCGGTCTCCC
DNA 2: TGGTGGCTACGACGGGATT
B5: UGUCCAG (DNA:RNA)
RNA: B1 RNA with C27U, U28C, A29C, U30A, C31G
DNA 1: CAATCTGAATTCCGGTCTCCC
DNA 2: TGGTGGCTACGACGGGATT
B6: CAAUCAG (DNA:RNA)
RNA: B1 RNA with U25C, G26A, C27A, A29C, U30A, C31G
DNA 1: CAATCTGAATTCCGGTCTCCC
DNA 2: TGGTGGCTACGACGGGATT
B7: CACGGGC (DNA:RNA)
RNA: B1 RNA with U25C, G26A, U28G, A29G, U30G
DNA 1: CAATCTGAATTCCGGTCTCCC
DNA 2: TGGTGGCTACGACGGGATT
B8: AUUUCUG (DNA:RNA)
RNA: B1 RNA with U25A, G26U, C27U, A29C, C31G
DNA 1: CAATCTGAATTCCGGTCTCCC
DNA 2: TGGTGGCTACGACGGGATT
B9: AGAGCAG (DNA:RNA)
RNA: B1 RNA with U25A, C27A, U28G, A29C, U30A, C31G
DNA 1: CAATCTGAATTCCGGTCTCCC
DNA 2: TGGTGGCTACGACGGGATT
B10: GCUGGGA (DNA:RNA)
RNA: GGGAGACCGGAAUUCAGAUUGUCCGCUGGGAUUAAAUCCCGUCGUAGCCACCA
DNA 1: CAATCTGAATTCCGGTCTCCC
DNA 2: TGGTGGCTACGACGGGATT
B11: CGGUUUC (DNA:RNA)
RNA: B1 RNA with U25C, C27G, A29U
DNA 1: CAATCTGAATTCCGGTCTCCC
DNA 2: TGGTGGCTACGACGGGATT
B12: CACUAGG (DNA:RNA)
RNA: B1 RNA with U25C, G26A, U30G, C31G
DNA 1: CAATCTGAATTCCGGTCTCCC
DNA 2: TGGTGGCTACGACGGGATT
B13: GACGUAA (DNA:RNA)
RNA: B10 RNA with C26A, U27C, G29U, G30A
DNA 1: CAATCTGAATTCCGGTCTCCC
DNA 2: TGGTGGCTACGACGGGATT
B14: UAACGUC (DNA:RNA)
RNA: B1 RNA with G26A, C27A, U28C, A29G
DNA 1: CAATCTGAATTCCGGTCTCCC
DNA 2: TGGTGGCTACGACGGGATT
B15: AGGCAAC (DNA:RNA)
RNA: B1 RNA with U25A, C27G, U28C, U30A
DNA 1: CAATCTGAATTCCGGTCTCCC
DNA 2: TGGTGGCTACGACGGGATT
B16: CUCUGGC (DNA:RNA)
RNA: B1 RNA with U25C, G26U, A29G, U30G
DNA 1: CAATCTGAATTCCGGTCTCCC
DNA 2: TGGTGGCTACGACGGGATT
B17: GGAUGUA (DNA:RNA)
RNA: B10 RNA with C26G, U27A, G28U, G30U
DNA 1: CAATCTGAATTCCGGTCTCCC
DNA 2: TGGTGGCTACGACGGGATT
B18: CACCGUU (DNA:RNA)
RNA: B1 RNA with U25C, G26A, U28C, A29G, C31U
DNA 1: CAATCTGAATTCCGGTCTCCC
DNA 2: TGGTGGCTACGACGGGATT
B19: UGGUAAA (DNA:RNA)
RNA: B1 RNA with C27G, U30A, C31A
DNA 1: CAATCTGAATTCCGGTCTCCC
DNA 2: TGGTGGCTACGACGGGATT
B20: AGAAAGC (DNA:RNA)
RNA: B1 RNA with U25A, C27A, U28A, U30G
DNA 1: CAATCTGAATTCCGGTCTCCC
DNA 2: TGGTGGCTACGACGGGATT

Biological target: T1, RBFOX1 RRM (Homo sapiens, UniProt Q9NWB1 109-208)
T1 sequence: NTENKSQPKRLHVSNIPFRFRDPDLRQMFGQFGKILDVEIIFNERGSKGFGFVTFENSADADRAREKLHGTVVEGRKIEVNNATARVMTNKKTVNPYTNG
Assay: EMSA; HiTS-Eq, 1 nM pool, 10 min; buffer printed only for the single-RNA assays: 10 mM Tris pH 7.5, 150 mM NaCl, 3.4 mM EDTA, 0.001% NP-40, 30 C
Conditions: tags: His6 N-terminal (pET28a); label: 5' 32P
In short: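 Purified RbFox RRM (wild type or mutant) was equilibrated for 10 min in 50 µL with 1 nM of a 5′-radiolabelled pool of RNA with 7 randomized nucleotides, its flanks annealed to DNA oligonucleotides, across increasing protein concentrations. Free RNA was separated by 8% native PAGE, excised, reverse-transcribed, PCR-barcoded and sequenced on an Illumina HiSeq 2500. Relative association constants came from read-count changes of each variant against the control reaction, normalised to the cognate motif.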

Binder	binding signal
B1	0.014 KA relative to UGCAUGU
B2	0.00978 KA relative to UGCAUGU
B3	0.00325 KA relative to UGCAUGU
B4	0.0141 KA relative to UGCAUGU
B5	0.0159 KA relative to UGCAUGU
B6	0.00649 KA relative to UGCAUGU
B7	0.00242 KA relative to UGCAUGU
B8	0.0168 KA relative to UGCAUGU
B9	0.00873 KA relative to UGCAUGU
B10	0.0174 KA relative to UGCAUGU
B11	0.00701 KA relative to UGCAUGU
B12	0.00412 KA relative to UGCAUGU
B13	0.00966 KA relative to UGCAUGU
B14	0.0107 KA relative to UGCAUGU
B15	0.00986 KA relative to UGCAUGU
B16	0.0159 KA relative to UGCAUGU
B17	0.015 KA relative to UGCAUGU
B18	0.0019 KA relative to UGCAUGU
B19	0.00876 KA relative to UGCAUGU
B20	0.00546 KA relative to UGCAUGU
